Laboratory results from the supplement of paper PMC4967469.

Key:
Assay in all cases: Viability of human cancer cell lines after 72 h of drug (GDSC screen)
[1] = compound: CCn1c(-c2nonc2N)nc2cnc(Oc3cccc(NC(=O)c4ccc(OCCN5CCOCC5)cc4)c3)cc21 [GSK269962A]; details: top dose inferred
Method: (§1)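 Human cancer cell lines in 384-well plates, medium with 10% serum, drug for 72 h over a 256-fold dose range (nine 2-fold or five 4-fold steps up to the top dose). Adherent lines were fixed and stained with the nucleic acid dye Syto60, suspension lines read with resazurin; signal relative to control wells, capped at 0 and 100%. One two-parameter sigmoid per drug and line, fitted in a mixed model over all curves with the slope shared within a line.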

[2] = compound: COc1cc(O)c2c(c1)/C=C/C[C@H](O)[C@H](O)C(=O)/C=C\C[C@H](C)OC2=O [(5Z)-7-Oxozeaenol]; details: top dose 10 µM; top dose inferred
Method: as §1

[3] = compound: C[C@]1(c2nc3c(C(N)=O)cccc3[nH]2)CCCN1 [ABT-888]; details: top dose 5 µM; top dose inferred
Method: as §1

[4] = compound: Cc1cnc(-c2cnc(NCCNc3ccc(C#N)cn3)nc2-c2ccc(Cl)cc2Cl)[nH]1 [CHIR-99021]
Method: as §1

[5] = compound: Nc1ccn([C@@H]2O[C@H](CO)[C@@H](O)[C@@H]2O)c(=O)n1 [Cytarabine]; details: top dose 2 µM
Method: as §1

[6] = compound: O=c1cc(-c2cccc3c2Sc2ccccc2S3)oc(N2CCOCC2)c1 [KU-55933]; details: top dose 10 µM
Method: as §1

[7] = compound: C/C=C(/C)C(=O)O[C@H]1C(C)=C2[C@H]([C@@H]1OC(=O)CCCCCCC)[C@@](C)(OC(C)=O)C[C@H](OC(=O)CCC)[C@@]1(O)[C@H]2OC(=O)[C@@]1(C)O [Thapsigargin]; details: top dose 0.512 µM; top dose inferred
Method: as §1

[8] = compound: C=CC(=O)Nc1cc(-n2c(=O)ccc3cnc4ccc(-c5cn[nH]c5)cc4c32)ccc1C [QL-X-138]; details: top dose 10.24 µM; top dose inferred
Method: as §1

[9] = compound: COc1cc(N2CCC(O)CC2)ccc1Nc1cc(Nc2ccccc2S(=O)(=O)C(C)C)c2cc[nH]c2n1 [MPS-1-IN-1]; details: top dose 20 µM; top dose inferred
Method: as §1

[10] = compound: COc1cc2ncnc(-n3nc(-c4ccccn4)nc3N)c2cc1OC [CP466722]; details: top dose 16 µM; top dose inferred
Method: as §1

[11] = compound: COc1nc(C)cnc1NS(=O)(=O)c1cccnc1-c1ccc(-c2nnco2)cc1 [Zibotentan]; details: top dose 20 µM; top dose inferred
Method: as §1

[12] = compound: Cc1ccc(F)c(NC(=O)Nc2ccc(-c3cccc4[nH]nc(N)c34)cc2)c1 [ABT-869]; details: top dose 1.024 µM; top dose inferred
Method: as §1

[13] = top dose 5 µM, screen: GDSC drug entry 1192
[14] = top dose 10 µM, screen: GDSC drug entry 1241, top dose inferred
[15] = top dose 2.5 µM, screen: GDSC drug entry 127
[16] = top dose 2.56 µM, screen: GDSC drug entry 154

Cell Line | AUC [1, 13] | IC50 [1, 13] [µM] | AUC [2] | IC50 [2] [µM] | AUC [3] | IC50 [3] [µM] | AUC [4, 14] | IC50 [4, 14] [µM] | AUC [5] | IC50 [5] [µM] | AUC [6] | IC50 [6] [µM] | AUC [1, 15] | IC50 [1, 15] [µM] | AUC [7] | IC50 [7] [µM] | AUC [8] | IC50 [8] [µM] | AUC [9] | IC50 [9] [µM] | AUC [10] | IC50 [10] [µM] | AUC [11] | IC50 [11] [µM] | AUC [12] | IC50 [12] [µM] | AUC [4, 16] | IC50 [4, 16] [µM]
BALL-1 (B-cell leukaemia, suspension) | 0.986 | > 5 | 0.859 | 4.92 | 0.997 | > 5 | 0.87 | 5.3 | 0.343 | 0.052 | 0.982 | > 10 |  |  |  |  |  |  |  |  |  |  |  |  |  |  |  | 
CL-34 (large intestine, adherent) | 0.906 | > 5 | 0.545 | 0.84 | 0.98 | > 5 | 0.986 | > 10 | 0.868 | > 2 | 0.977 | > 10 |  |  |  |  |  |  |  |  |  |  |  |  |  |  |  | 
CL-40 (large intestine, adherent) | 0.972 | > 5 | 0.72 | 4.1 | 0.963 | > 5 | 0.9 | > 10 | 0.938 | > 2 | 0.975 | > 10 |  |  |  |  |  |  |  |  |  |  |  |  |  |  |  | 
CML-T1 (chronic myeloid leukaemia, suspension) | 0.964 | > 5 | 0.588 | 1.04 | 0.991 | > 5 | 0.976 | > 10 | 0.317 | 0.0426 | 0.947 | > 10 |  |  |  |  |  |  |  |  |  |  |  |  |  |  |  | 
CRO-AP2 (B-cell lymphoma, suspension) | 0.481 | 0.279 | 0.476 | 0.544 | 0.98 | > 5 | 0.978 | > 10 | 0.745 | 0.558 | 0.95 | > 10 | 0.846 | 1.47 |  |  |  |  |  |  |  |  |  |  |  |  |  | 
DIFI (large intestine, adherent) | 0.835 | 3.48 | 0.734 | 2.99 | 0.984 | > 5 | 0.961 | > 10 | 0.808 | 1.09 | 0.983 | > 10 |  |  |  |  |  |  |  |  |  |  |  |  |  |  |  | 
EW-22 (Ewing sarcoma, adherent) | 0.917 | > 5 | 0.795 | 4.43 | 0.988 | > 5 | 0.799 | 4.58 | 0.761 | 0.686 | 0.964 | > 10 | 0.955 | > 2.5 |  |  |  |  |  |  |  |  |  |  |  |  |  | 
HCC-366 (non-small cell lung carcinoma, adherent) | 0.926 | > 5 | 0.781 | 4.31 | 0.988 | > 5 |  |  | 0.929 | > 2 | 0.983 | > 10 |  |  |  |  |  |  |  |  |  |  |  |  |  |  |  | 
JHOS-4 (ovary, adherent) |  |  |  |  | 0.979 | > 5 |  |  | 0.804 | 1.59 | 0.965 | > 10 |  |  |  |  |  |  |  |  |  |  |  |  |  |  |  | 
KATOIII (stomach, semi-adherent) | 0.977 | > 5 | 0.749 | 3 | 0.99 | > 5 | 0.915 | > 10 | 0.942 | > 2 | 0.967 | > 10 |  |  |  |  |  |  |  |  |  |  |  |  |  |  |  | 
KNS-62 (lung squamous cell carcinoma, adherent) | 0.967 | > 5 | 0.631 | 1.69 | 0.956 | > 5 | 0.975 | > 10 | 0.8 | 1.53 | 0.905 | > 10 |  |  |  |  |  |  |  |  |  |  |  |  |  |  |  | 
MDA-MB-175-VII (breast, adherent) | 0.986 | > 5 | 0.727 | 2.98 | 0.988 | > 5 | 0.986 | > 10 | 0.819 | 1.29 |  |  |  |  | 0.769 | 0.213 | 0.634 | 1.56 | 0.981 | > 20 | 0.776 | 7.08 | 0.986 | > 20 | 0.98 | > 1.02 | 0.978 | > 2.56
MEL-HO (melanoma, adherent) | 0.912 | > 5 | 0.079 | < 0.0391 | 0.986 | > 5 | 0.982 | > 10 | 0.806 | 1.03 | 0.949 | > 10 |  |  |  |  |  |  |  |  |  |  |  |  |  |  |  | 
MHH-CALL-2 (B-cell leukaemia, suspension) | 0.996 | > 5 | 0.865 | 5.25 | 0.993 | > 5 | 0.987 | > 10 | 0.921 | 1.62 | 0.984 | > 10 |  |  |  |  |  |  |  |  |  |  |  |  |  |  |  | 
MKN7 (stomach, adherent) | 0.955 | > 5 | 0.802 | 7.09 | 0.979 | > 5 | 0.97 | > 10 | 0.953 | > 2 | 0.926 | > 10 |  |  |  |  |  |  |  |  |  |  |  |  |  |  |  | 
MKN45 (stomach, adherent) | 0.97 | > 5 | 0.94 | > 10 | 0.974 | > 5 | 0.947 | > 10 | 0.726 | 0.661 |  |  |  |  | 0.367 | 0.0124 | 0.866 | > 10.2 | 0.941 | > 20 | 0.888 | > 16 | 0.983 | > 20 | 0.982 | > 1.02 | 0.971 | > 2.56
MM1S (myeloma, suspension) |  |  |  |  | 0.984 | > 5 |  |  | 0.885 | > 2 | 0.944 | > 10 |  |  |  |  |  |  |  |  |  |  |  |  |  |  |  | 
Mewo (melanoma, adherent) | 0.956 | > 5 | 0.624 | 1.48 | 0.984 | > 5 | 0.961 | > 10 | 0.772 | 0.923 |  |  |  |  | 0.912 | > 0.512 | 0.975 | > 10.2 | 0.985 | > 20 | 0.984 | > 16 | 0.984 | > 20 | 0.98 | > 1.02 | 0.974 | > 2.56

Lines with a small IC50 respond at low doses; where the fit passes the top or lowest dose, that dose stands as a limit. The AUC spans the tested range (256-fold, ending at the top dose) of the same fit; values near 1 show little effect. For some assays here: Where the top dose is marked as inferred, it was calculated from the reported fits. For some assays here: An entry number marks a drug with two screens in the source, which often give different values.
